Source: the supplement of paper PMC11417369
The other results are listed elsewhere or left out.

test system: PF3D7_0420300 AP2 domain 1 (GST-tagged); assay: gcPBM binding intensity (ln(normalized median fluorescence intensity)); higher = stronger DNA binding
Method in brief: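 After 1 h on an Agilent 4 × 180k array of primer-extended double-stranded 36-bp intergenic genomic probes and negative controls, bound GST-tagged P. falciparum DNA-binding domains were detected with Alexa488 anti-GST antibody and scanned at 488 nm. The domains had been expressed in E. coli, and binding took place in 1× PBS with 1% milk, 0.2 mg/ml BSA, 0.5% salmon testes DNA and 0.03% Triton X-100. Binding intensity is the highest Masliner-normalised natural-log median intensity across replicate spots of either probe orientation.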

Row | Sequence | gcPBM binding intensity (ln)
1 | AGGCTGCCATATTATACACACATTTTTAAAAAAATT [CACACA_site3843] | 9.21
2 | AAATATTACCATGTGAAAATTTTACTGCAACATGAA [TGCATGCA_negctrl_site609] | 9.3
3 | GTTACATACATATACACACACATATATATATATATA [CACACA_site901] | 9.84
4 | TAAATAATTCTTTTAGTACACACGAATAAGCAGATA [CACACA_site305] | 9.38
5 | TAATTTTTATTCAAGAGTACACAAAAGATAACTAAA [XGTACX_site4060] | 9.14
6 | TAAAAAAAATCATTCACACATATATGAAAAAAAAAA [CACACA_site5546] | 9.22
7 | TTCTTACACGTTTGCACACTAAAATATATATATATA [CACACA_site434] | 9.51
8 | TAGATACCTATAGAAACATGCAATTGAATATATTTC [TGCATGCA_site402] | 9.27
9 | AAAAAATGAAAATATTCCAAAATAGAGGGAAATGTA [GTGCAC_negctrl_site572] | 9.42
10 | TATGTGATAACACGCACACAAATGTATTTAATTTAT [CACACA_site5435] | 9.31
11 | CACAAAAATGTAATCACACATATATATATATATATA [CACACA_site5818] | 9.19
12 | TTATATTTATATATTTGTACGTATGTATATAATTCA [XGTACX_site2993] | 9.09
13 | ATTCTAATAATATATACACACACATATATATTTATA [CACACA_site8629] | 9.77
14 | AAAATTAGGAGACATGCATGTAACGATAAATATAAC [TGCATGCA_site148] | 9.77
15 | CTTTTTTAAAATATTTAACACACAATTTTAATGCAT [CACACA_site9303] | 9.21
16 | TTTTTTTTCTTTTTTTTTTTTTCAAAAGCTTATAAT [CACACA_negctrl_site1526] | 8.9
17 | GTGTATTTGGTGCGCACACACATGCAAAAAGAAATA [CACACA_site4768] | 9.59
18 | TGTATAATCATATATACACACACATATATATATATA [CACACA_site8674] | 9.52
19 | TTATATAAAAAAAAATGTACATATAATTGGTAAATT [XGTACX_site5180] | 9.34
20 | TTGAAAATAATATGAAGTACATTATTTTTTTTTAAT [XGTACX_site4499] | 8.79
21 | AAAAATATTTAAAATACACACATATATATAATATAT [CACACA_site2006] | 9.5
22 | AAAACTTTCCATGTTTGTACATAAAATATAATAATT [XGTACX_site2716] | 9.08

Row | Sequence | gcPBM binding intensity (ln)
23 | ATATTAAAGCCTTTTTGTACATATAAATAAACATAG [XGTACX_site4667] | 9.15
24 | CTTGAAAGATTTTATTGTACTCATAAGATACATTTC [XGTACX_site3178] | 8.99
25 | TCATACAATATTAAATGTACATATATATATATATAT [XGTACX_site8828] | 9.2
26 | AACTCTTAAAAATAAACATGCAAATATTTACCTTCT [TGCATGCA_site986] | 9.24
27 | TATATATTATATATATGTACATAATTCCATGTTTAG [XGTACX_site3943] | 9.18
28 | ATTTTTTTTTTTTTTTTTCATTTTTTTTTTTTTTTT [CACACA_negctrl_site1204] | 9.23
29 | AACCATAACTCATATGCACACATAAATATTACATAT [CACACA_site9273] | 9.61
30 | TGGAGGATAGTTCACAGTACCCAGTAACTCTACGGA [XGTACX_site4930] | 8.99
31 | AAAGTATAAATAAATACACACATATATATATATATA [CACACA_site2892] | 9.4
32 | TACATTCGGAGTAAAAAAAAATTTATACAATTACTT [XGTACX_negctrl_site29] | 8.92
33 | GTAAAAAAAAAAAAAAGTACATTATACATATATTTA [XGTACX_site5447] | 8.9
34 | TGTGTATATAAATAATGTACATATATATTTTTTTAT [XGTACX_site7341] | 9.17
35 | AAAAATGTATGTATGGTGCAGTATTCATATCATTTT [GTGCAC_site9458] | 9.34
36 | AAAATGAACAAACACACACACATATATATATATATA [CACACA_site2403] | 9.82
37 | TTATTGTGTAAGATGATTTTCTTCGTCACTTTGAAA [CACACA_negctrl_site1814] | 8.82
38 | TCTTGAAAAAGAATCAATCGGTCGACAAAAAAAAAA [CACACA_negctrl_site1099] | 9.22
39 | TTTTTTAATATTTATTAATTAAACTTTGTTTTTGTT [XGTACX_negctrl_site454] | 9.16
40 | ATATTCTTGTTTAATACACACTGTAGTATTATAGAT [CACACA_site6341] | 9.47
41 | AAAAAACACTTAAGGTGTACCTTTTAATATAAGTAT [XGTACX_site2397] | 9.14
42 | GACAAATAATAAAAGGTGCATTATACTTAACAAAAA [GTGCAC_site9624] | 9.27
43 | ATATAAATATTTATTAGTACACATTAGTGTAGTTTT [XGTACX_site4493] | 9.16
44 | CTATATTATTTTTCTTGTACGTAGGAAATATAGCTA [XGTACX_site6176] | 8.85
